The text below walks through data of PubChem BioAssay AID485344 (National Center for Advancing Translational Sciences (NCATS), 2010).

SMILES strings stand for the structures. Screen size: about 340,000 compounds; about 6,900 (2%) were called active. No stated cut-off is given here; in the data, active means inhibition above about 30%; inactive means below that, where a call was filed. The list shows a part of the results, in another mix than the full data. Entries without a call were filed so in the source.

This experiment concerns the target D(2) dopamine receptor (Homo sapiens) (UniProt P14416). The experiment can be described thus: HTS Assay for Allosteric Antagonists of the Human D2 Dopamine Receptor: Primary Screen for Antagonists. Further: 0% is about no effect. To be noted: HEK293 TREx D2 cells, calcium flux, dopamine EC80; at 10 µM; stronger effect = higher value. The gist of the method: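 Calcium mobilization kinetics were recorded at 1 s intervals in tetracycline-induced HEK293 T-REx D2 cells, first for 180 s after compound addition and then 180 s after EC80 dopamine.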
Sequence of UniProt P14416 (P14416 whole entry, looked up): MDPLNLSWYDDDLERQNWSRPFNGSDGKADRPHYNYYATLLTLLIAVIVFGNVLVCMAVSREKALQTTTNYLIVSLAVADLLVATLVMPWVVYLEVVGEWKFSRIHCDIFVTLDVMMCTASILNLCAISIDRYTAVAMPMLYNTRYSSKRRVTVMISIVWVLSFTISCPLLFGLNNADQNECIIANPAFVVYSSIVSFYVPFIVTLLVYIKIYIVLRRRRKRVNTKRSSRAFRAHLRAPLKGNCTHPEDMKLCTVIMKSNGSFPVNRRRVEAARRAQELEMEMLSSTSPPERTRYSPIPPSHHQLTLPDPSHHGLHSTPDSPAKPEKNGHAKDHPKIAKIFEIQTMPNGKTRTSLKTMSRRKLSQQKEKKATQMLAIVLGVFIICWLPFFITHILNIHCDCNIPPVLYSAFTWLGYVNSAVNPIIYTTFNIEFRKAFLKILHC
On to `CCOc1ccc(N2CC(NC(=O)c3ccc(Cl)cc3)CC2=O)cc1` (configuration not stated), for which the inhibition – broadly, the change of the read-out against control, counted positive when it falls – is -28%.

For the molecule `CCC(C)S(=O)(=O)c1oc(-c2cccs2)nc1S(=O)(=O)c1ccccc1` (configuration not stated), the inhibition was -19.8%. As to `COc1cn(CC(=O)Nc2cc(C)cc(C)c2)c(CN2CCCCC2)cc1=O`, the inhibition is 4.58%. Consider `O=S(=O)(Cc1ccc(Cl)cc1)c1ccccc1-c1nnc(-c2ccccc2)o1`, for which the inhibition was active: 54.9%.

With `COc1cccc(-c2nnc(SCC(=O)N(C)C3CCCCC3)o2)c1`, the inhibition is -8.98%. Take `CCc1cc(C(=O)NNC(=O)CCN2CCN(c3ccccc3)CC2)sc1C`: the inhibition was active: 66.4%. On to `CN1CCc2nc3sc(C(=O)c4ccc(F)cc4)c(N)c3cc2C1`, for which the inhibition was determined as 9.89%. As to `CCOc1ccccc1CNCc1c(C(=O)O)c(C)n(Cc2ccc(C)cc2)c1C`, the inhibition was 0.42%.

Turning to `CN1C(=O)c2cccc3c(S(=O)(=O)Nc4cccc(C(=O)O)c4)ccc1c23`, the inhibition was -18.1%. As for `CCOc1ccc(CCNC(=O)Cn2c(-c3cccs3)cc3ccccc32)cc1`, the figure is 11.3%. For `O=C(Nc1cc(Cl)cc(Cl)c1)c1cc(S(=O)(=O)NC2CCCC2)ccc1F`, the inhibition is 10.2%.

On to `Cc1cccc(N2CCN(C(=O)C3CCN(C(=O)c4cc5sccc5n4C)CC3)CC2C)c1` (configuration not stated), for which the inhibition is -3.21%.

In the case of `CCOc1ccc2nc(Cl)c(C3CC(c4ccc(C)cc4)=NN3C(=O)CCC(=O)O)cc2c1` (configuration not stated), the inhibition is 14.5%.

In the case of `COc1ccc(CN(C)c2ccc(-c3nc(-c4ccc(OC)c(OC)c4)no3)cc2[N+](=O)[O-])cc1`, the inhibition was determined as 4.63%.

Turning to `Cc1c(Cl)cccc1NC(=O)CCS(=O)(=O)c1ccc2c(c1)CC(C)N2C(=O)C1CC1` (configuration not stated), the inhibition came to 3.95%.

For the molecule `COc1ccc(N(C(=O)c2ccccc2C)S(=O)(=O)c2ccc(Cl)cc2)cc1`, the inhibition was -4.13%.

Consider `Nc1ncc(S(=O)(=O)NCc2ccccc2)cn1`, for which the inhibition amounted to 4.8%. In the case of `COc1cc(S(=O)(=O)NCCc2c(C)[nH]c3ccc(C)cc23)ccc1Br`, the inhibition was 13.2%. With `COc1ccc(C(=O)c2cn(Cc3ccccc3)c3ccccc3c2=O)cc1OC`, the inhibition was found to be 27.4%. In the case of `CN1C(C(=O)Nc2cccc(O)c2)=CC(c2cccs2)=NS1(=O)=O`, the inhibition was -21.4%. In the case of `COc1ccc(C)cc1NC(=O)CSc1nnc(-c2cc3cccc(OC)c3o2)n1N`, the inhibition is active: 35.1%.

As for `Cc1cccc(NC(=O)c2ccc(F)c(S(=O)(=O)NCc3ccco3)c2)c1`, the inhibition is active: 33%. As to `O=C(NCCc1nc2ccccc2n1Cc1ccccc1F)c1ccc(F)cc1`, the inhibition was -13.9%. For the molecule `Cc1ccc(NC(=O)CCc2nnc3ccc(N4CCC(C)CC4)nn23)nc1`, the inhibition was active: 32%.

Turning to `CCOc1ccc(CCNC(=O)c2cnc3c(-c4ccc(F)cc4)c(C)nn3c2C)cc1`, the inhibition stood at 12.3%. In the case of `Cc1ccc(C)c(NC(=O)C(=O)NCCCN2CCOCC2)c1`, the inhibition was -10.8%. Regarding `CCOc1ccccc1NC(=O)COC(=O)CC(C)(C)CC1=NS(=O)(=O)c2ccccc2N1`, the inhibition was -3.69%.

Regarding `Cc1onc(-c2ccccc2Cl)c1C(=O)Oc1ccc(Cl)cc1Cl`, the inhibition turned out to be 6.66%. Take `CCOc1ccc(-n2ccnc2SCC(=O)Nc2cc(C)ccc2C)cc1`: the inhibition is -4.7%. In the case of `COc1cccc(-n2c(SCc3cccc(C)c3)nc3c([nH]c4ccccc43)c2=O)c1`, the inhibition is 11.4%. Then `CC(C)CCNC(=O)c1cnc2sc(N3CCCCCC3)nn2c1=O`, with 4.58%; and `Cc1ccc(O)c(NC(=O)c2cc(-c3ccc(F)cc3)no2)c1`, with -24.3%; and `COc1ccc(CNC(=O)c2ccc(Cn3c(=O)c4cccn4c4cccnc43)cc2)c(OC)c1`, with -0.543%. For the molecule `COc1ccc(-n2nc3c(N4CCC(C(=O)N5CCC(C)CC5)CC4)nnc(C)c3c2C)cc1`, the inhibition was 2.8%. As for `COc1ccccc1Nc1nc(C)nc(N)c1S(=O)(=O)c1ccccc1`, the inhibition was determined as 3.1%. For `CCN(CC)S(=O)(=O)c1ccc2c(c1)nc(CN(C)C(=O)Nc1ccc(C)c(Cl)c1)n2C`, the inhibition came out at 5.23%. In the case of `Cc1nc2c3cccnc3nn2c(C)c1CCC(=O)NCc1ccccc1`, the inhibition worked out at 4.68%. For `CCc1ccc(NC(=O)C(=O)NCC(c2ccc3c(c2)OCO3)N2CCN(C)CC2)cc1` (configuration not stated), the inhibition was -1.24%. In the case of `COc1ccc(Nc2ncc(C(=O)Nc3cccc(Cl)c3)c3ccccc23)cc1`, the inhibition came to 1.7%.

As for `Cc1ccc(OCC(=O)NCC2(N3CCN(C)CC3)CCCCC2)cc1`, the inhibition is -15.3%.

`COc1ccc(-c2nc(CNC(=O)Nc3ccccc3)c(C)o2)c(OC)c1`: the inhibition was -5.96%. With `CCN1CCN(CCCNC(=O)Cn2c(-c3cccs3)cc3cc(Cl)ccc32)CC1`, the inhibition stood at 6.44%. Regarding `COc1ccccc1CNC(=O)CCc1c(C)c2cc3c(C)coc3cc2oc1=O`, the inhibition is 10.4%. On to `CCn1ccc2c(OCC(=O)Nc3ccc(OC)cc3OC)cccc2c1=O`, for which the inhibition is -14.2%.

As to `CCC(=O)N1c2ccccc2CC1C(=O)NCCCN1CCN(c2ccc(OC)cc2)CC1` (configuration not stated), the inhibition worked out at 3.86%. As to `CCn1cc(C(=O)NCCC(C)C)c(=O)c2cc(S(=O)(=O)N(C)C3CCCCC3)ccc21`, the inhibition is -7.81%. In the case of `O=S(=O)(Nc1ccc(O)c(Sc2nc3ccccc3s2)c1)c1cc(Cl)ccc1Cl`, the inhibition came to 6.96%. For the molecule `O=C(Cn1c(-c2cccs2)cc2cc(F)ccc21)NCCc1ccc(Cl)cc1`, the inhibition turned out to be 13.5%.

`CC1CCCCN1c1cc2c(cc1F)c(=O)c(S(=O)(=O)c1ccccc1)cn2Cc1ccccc1` (configuration not stated): the inhibition was -2.88%.

As to `Cc1c(Cl)cccc1NC(=O)C(=O)NCCc1csc2nc(-c3ccccc3F)nn12`, the inhibition came out at 23.3%. For `CCCCOc1ccc(CNC(=O)c2cnc3sc(N4CCCC4)nn3c2=O)cc1`, the inhibition came to 4.81%. `Cc1ccc(Cl)cc1N1CCN(C(=O)c2ccc3c(Cl)c4c(nc3c2)CCCC4)CC1`: the inhibition was -12%. In the case of `CC1CCC(NC(=O)c2ccc(CSc3nc4ccncc4n3Cc3ccc(F)cc3)cc2)CC1` (configuration not stated), the inhibition came to 0.554%.

For the molecule `COc1ccc(-n2c(SCCC(C)C)nc3sc4c(c3c2=O)CC(C(C)C)OC4)cc1` (configuration not stated), the inhibition turned out to be 11.3%. In the case of `Cc1nn(CCCC(=O)Nc2ccccc2C(F)(F)F)c(=O)c2nn(-c3ccccc3)c(C)c12`, the inhibition amounted to 4.9%. Regarding `Cc1nn2c(-c3ccccc3)cc(-c3ccccc3)nc2c1-c1ccc(Cl)cc1`, the inhibition is -9.22%. As for `Cc1cc(C)n2nc(CNC(=O)c3ccc(Cl)cc3)nc2n1`, the figure is -3.95%. Turning to `O=C(Nc1ccccc1)c1cccc(N2CCCS2(=O)=O)c1`, the inhibition is -0.275%. As to `COc1ccc(C(CC(=O)Nc2ncccc2C)N2Cc3ccccc3C2=O)cc1OC` (configuration not stated), the inhibition was -13.7%. For `CCc1ccc(NC(=O)c2cc(S(=O)(=O)NC3CCCCCC3)ccc2F)cc1`, the inhibition was 4.73%.

Regarding `Cc1nn(-c2ccccc2)c2c1N(CCCC(=O)NC(C)c1ccccc1)C(=O)CS2` (configuration not stated), the inhibition came to 7.85%. As for `COc1cc(OC)cc(C(=O)N2CCN(C(=O)c3cccc(F)c3)CC2)c1`, the inhibition was active: 30.8%.
